This note sets out measurements from the antibiotic and cytotoxicity screens of Wong et al. (2023).

In one assay the test system is HSkMC. Put plainly: cytotoxicity call (relative viability < 0.9). Particulars: 10 µM.
Another assay has as its system HepG2. Put plainly: cytotoxicity call (relative viability < 0.9). Particulars: 10 µM.
Another assay has as its system S. aureus RN4220. Put plainly: growth inhibition call (relative growth <= 0.2). Conditions: 50 µM.

Each structure is given as a SMILES string. This is one part of the list.

As for `CC=CC1=C(C(=O)O)N2C(=O)C(NC(=O)C(N)c3ccc(O)cc3)C2SC1` (centres undefined), the cytotoxicity call in the assay with HSkMC and in the assay with HepG2 was “inactive” throughout. In addition, the growth inhibition call with S. aureus RN4220 is “inactive”.
For `CCCN(C)C[C@@H]1OCCCC[C@@H](C)Oc2ccc(NC(=O)C3CCCCC3)cc2C(=O)N([C@@H](C)CO)C[C@@H]1C`, the cytotoxicity call with HSkMC and with HepG2 was “inactive” in each case. In addition, the growth inhibition call in the assay on S. aureus RN4220 was “inactive”.
In the case of `C[C@@H]1CN([C@H](C)CO)S(=O)(=O)c2ccc(C#CC3(O)CCCC3)cc2O[C@@H]1CN(C)C(=O)Cc1ccncc1`, the cytotoxicity call in the assay with HSkMC and with HepG2 was “inactive” throughout. Also, in the assay with S. aureus RN4220, the growth inhibition call was “inactive”.
With `CNC(=O)C[C@H]1CC[C@H]2[C@@H](COC[C@@H](O)CN2C(=O)Nc2cccc(OC)c2)O1`, the cytotoxicity call in the assay on HSkMC and in the assay on HepG2 was “inactive” each time. Moreover, the growth inhibition call in the assay on S. aureus RN4220 is “inactive”.
As to `C[C@@H]1CCCCO[C@@H](CN(C)S(=O)(=O)c2cn(C)cn2)[C@H](C)CN([C@@H](C)CO)C(=O)c2cc(NC(=O)c3ccncc3)ccc2O1`, the cytotoxicity call with HSkMC and in the assay with HepG2 was “inactive” in each case. The growth inhibition call in the assay on S. aureus RN4220 was “inactive”.
`COc1ccc(C#Cc2cnc3c(c2)C(=O)N([C@H](C)CO)C[C@H](C)[C@H](CN(C)S(=O)(=O)c2ccc(C#N)cc2)O3)cc1OC`: the cytotoxicity call with HSkMC and with HepG2 was “inactive” each time. Further, the growth inhibition call with S. aureus RN4220 is “inactive”.
As to `Cl.NC(CO)C(=O)NNCc1ccc(O)c(O)c1O` (centres undefined), the cytotoxicity call in the assay with HSkMC and with HepG2 was “inactive” each time. The growth inhibition call in the assay on S. aureus RN4220 is “inactive”.
Take `COC(=O)[C@@]12O[C@@H]1[C@H](O[C@@H]1O[C@H](CO)[C@@H](O)[C@H](O)[C@H]1O)C[C@H]1[C@]3(C)C[C@@H](c4ccoc4)OC(=O)[C@H]3CC[C@]12C`: the cytotoxicity call with HSkMC was “inactive”. Moreover, the cytotoxicity call with HepG2 is “active”. Besides, the growth inhibition call in the assay on S. aureus RN4220 is “inactive”.
Regarding `CC(C)(O)C#Cc1ccc([C@H]2[C@H](CO)N3CCCCN(S(C)(=O)=O)C[C@@H]23)cc1`, the cytotoxicity call in the assay with HSkMC and in the assay on HepG2 was “inactive” in each case. The growth inhibition call in the assay with S. aureus RN4220 is “inactive”.
Regarding `CCCOc1ccccc1-c1nc2[nH]nnc2c(=O)[nH]1`, the cytotoxicity call in the assay on HSkMC and with HepG2 was “inactive” in each case. Moreover, in the assay on S. aureus RN4220, the growth inhibition call is “inactive”.
On to `C[C@@H]1CCCCO[C@@H](CN(C)C(=O)c2ccccc2)[C@H](C)CN([C@@H](C)CO)C(=O)c2cc(NC(=O)Nc3ccccc3)ccc2O1`, for which the cytotoxicity call in the assay with HSkMC and with HepG2 was “inactive” each time. Moreover, in the assay on S. aureus RN4220, the growth inhibition call was “inactive”.
In the case of `O=C(C[C@@H]1C[C@@H]2c3cc(NC(=O)Nc4ccccc4F)ccc3O[C@@H]2[C@@H](CO)O1)NCc1ccc(Oc2ccccc2)cc1`, in the assay with HSkMC, the cytotoxicity call was “inactive”. Moreover, the cytotoxicity call with HepG2 is “active”. For the same compound, in the assay on S. aureus RN4220, the growth inhibition call was “inactive”.
`CNC[C@@H]1OCCCC[C@H](C)Oc2ccc(NC(=O)Nc3ccc(C(F)(F)F)cc3)cc2C(=O)N([C@H](C)CO)C[C@@H]1C`: the cytotoxicity call in the assay with HSkMC and in the assay with HepG2 was “inactive” each time. Also, in the assay on S. aureus RN4220, the growth inhibition call was “inactive”.
Consider `C[C@H](CO)N1C[C@H](C)[C@@H](CN(C)S(C)(=O)=O)OCc2cnnn2CCCC1=O`, for which the cytotoxicity call in the assay on HSkMC and in the assay with HepG2 was “inactive” each time. In the assay with S. aureus RN4220, the growth inhibition call was “inactive”.
Regarding `O=C(CCCCn1c(=O)[nH]c2ccccc2c1=O)N1CCN(c2ncccn2)CC1`, the cytotoxicity call with HSkMC and in the assay on HepG2 was “inactive” throughout. In the assay with S. aureus RN4220, the growth inhibition call is “inactive”.
As for `C[C@H](CO)N1C[C@H](C)[C@H](CN(C)Cc2ccc(Oc3ccccc3)cc2)Oc2ccc(NS(=O)(=O)c3ccc(F)cc3)cc2CC1=O`, the cytotoxicity call in the assay with HSkMC and with HepG2 was “active” throughout. In addition, the growth inhibition call in the assay with S. aureus RN4220 is “inactive”.
On to `C[C@H]1CN([C@@H](C)CO)C(=O)Cc2cc(NC(=O)Cn3cnnn3)ccc2O[C@H]1CN(C)Cc1ccc(Oc2ccccc2)cc1`, for which the cytotoxicity call with HSkMC and in the assay on HepG2 was “inactive” throughout. Moreover, the growth inhibition call in the assay on S. aureus RN4220 is “inactive”.
Consider `Cc1noc(C)c1NC(=O)N(C)C[C@@H]1Oc2ccc(NS(=O)(=O)c3cn(C)cn3)cc2C(=O)N([C@@H](C)CO)C[C@@H]1C`, for which the cytotoxicity call in the assay on HSkMC and in the assay on HepG2 was “inactive” in each case. Also, in the assay with S. aureus RN4220, the growth inhibition call is “inactive”.
As to `Cc1cc(C(=O)Nc2cccc3c2O[C@@H](CN(C)Cc2ccc(Oc4ccccc4)cc2)[C@H](C)CN([C@@H](C)CO)C3=O)n(C)n1`, the cytotoxicity call with HSkMC and in the assay with HepG2 was “inactive” in each case. Moreover, the growth inhibition call in the assay with S. aureus RN4220 was “inactive”.
`C[C@H](CO)N1C[C@H](C)[C@H](CN(C)Cc2cncnc2)Oc2ncc(C#C[C@@H](C)O)cc2C1=O`: the cytotoxicity call in the assay on HSkMC and in the assay on HepG2 was “inactive” throughout. The growth inhibition call in the assay on S. aureus RN4220 is “inactive”.
For the compound `CC(=O)OC[C@@H]1O[C@H](O[C@@H]2CC[C@]34C[C@]35CC[C@]3(C)[C@@H]([C@@H](C)[C@H]6C[C@@H](O)C(C)(C)O6)CC[C@@]3(C)[C@H]5CC[C@H]4[C@H]2C)[C@@H](O)[C@H](O)[C@@H]1O[C@H]1O[C@@H](CO)[C@@H](O[C@H]2O[C@@H](CO)[C@@H](O)[C@@H](O)[C@@H]2O)[C@@H](O[C@H]2O[C@@H](C)[C@@H](O)[C@@H](O)[C@@H]2O)[C@@H]1O`, the cytotoxicity call in the assay on HSkMC (human skeletal muscle cells) and in the assay on HepG2 was “inactive” in each case. Besides, the growth inhibition call in the assay on S. aureus RN4220 was “inactive”.
Regarding `COc1cccc(C(=O)Nc2ccc3c(c2)C(=O)N(C)[C@H]2CC[C@H](CC(=O)NCCCN4CCOCC4)O[C@@H]2CO3)c1`, the cytotoxicity call in the assay with HSkMC and in the assay on HepG2 was “inactive” in each case. Besides, in the assay on S. aureus RN4220, the growth inhibition call is “inactive”.
For `C[C@@H]1CN([C@H](C)CO)C(=O)Cc2cc(NC(=O)C3CCCCC3)ccc2O[C@H]1CN(C)C(=O)Nc1cccc2ccccc12`, the cytotoxicity call with HSkMC and in the assay on HepG2 was “inactive” in each case. In addition, the growth inhibition call with S. aureus RN4220 was “inactive”.
